Assay results taken from PubChem BioAssay AID488969 (Vanderbilt High Throughput Screening Facility, 2010).
Whole data set: some 110,000 compounds, median “z-score” near -0.1, cut for the highest 2% near 2. The list shows a part of the results. Active and inactive are the calls of the source.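 Rule for the calls: active = z-score in the third read window above 3 or below -3; inactive = the rest.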

biological target: Metabotropic glutamate receptor 8 (Rattus norvegicus) (UniProt P70579); test: rat mGluR8 modulators via GIRK flux, primary screen, cell-based, thallium flux, HTS (AID 488969); settings: HEK293 rat mGluR8, GIRK (G protein-gated inwardly rectifying potassium channel) thallium flux, FluoZin2; at 10 µM; stronger effect = higher value; submaximal glutamate (EC20) added with thallium
UniProt P70579, sequence (P70579 whole entry, looked up): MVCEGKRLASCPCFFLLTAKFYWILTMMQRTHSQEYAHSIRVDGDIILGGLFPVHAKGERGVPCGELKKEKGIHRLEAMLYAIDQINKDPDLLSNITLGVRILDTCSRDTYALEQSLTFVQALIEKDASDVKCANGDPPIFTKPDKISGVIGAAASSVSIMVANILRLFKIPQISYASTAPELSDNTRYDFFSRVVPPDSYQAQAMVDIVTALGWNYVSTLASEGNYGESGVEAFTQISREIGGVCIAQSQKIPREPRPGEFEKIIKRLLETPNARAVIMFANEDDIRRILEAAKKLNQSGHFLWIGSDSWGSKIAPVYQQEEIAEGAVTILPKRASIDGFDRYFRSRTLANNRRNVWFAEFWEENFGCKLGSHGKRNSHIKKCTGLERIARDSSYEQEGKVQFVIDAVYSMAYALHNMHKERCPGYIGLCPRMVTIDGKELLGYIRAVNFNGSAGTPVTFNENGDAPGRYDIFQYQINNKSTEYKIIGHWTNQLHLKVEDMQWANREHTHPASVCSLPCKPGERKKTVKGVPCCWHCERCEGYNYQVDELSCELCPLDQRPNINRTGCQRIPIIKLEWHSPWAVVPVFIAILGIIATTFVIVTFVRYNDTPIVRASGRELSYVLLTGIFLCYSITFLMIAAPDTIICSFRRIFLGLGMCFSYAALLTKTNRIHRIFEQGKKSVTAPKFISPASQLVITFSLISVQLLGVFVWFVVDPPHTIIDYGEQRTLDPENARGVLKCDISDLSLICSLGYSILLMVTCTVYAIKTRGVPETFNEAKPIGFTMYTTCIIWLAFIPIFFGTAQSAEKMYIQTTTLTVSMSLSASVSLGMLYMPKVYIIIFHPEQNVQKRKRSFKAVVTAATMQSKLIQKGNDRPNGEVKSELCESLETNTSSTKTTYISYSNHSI

SMILES | z-score
COc1ccc(-c2nc(C(N)=O)c3[nH]c(=O)n(-c4cccc(Cl)c4)c3n2)cc1OC | -0.301
CSc1ccc(OC2CCCCC2NS(=O)(=O)c2ccccc2)cc1 (stereo not drawn) | -0.0315
Cc1cc(C(=O)NCc2ccccc2)no1 | 0.651
Clc1ccc(Cn2nc(-c3ccccc3)nc2-c2ccccc2)cc1 | -0.283
Cc1ccc(S(=O)(=O)Cn2nnnc2C(CC(C)C)N2CCN(c3ccc(F)cc3)CC2)cc1 (stereo not drawn) | 0.255
CS(=O)(=O)N1CCN(c2ccc([N+](=O)[O-])c(NCc3ccccc3)c2)CC1 | -0.131
CNc1oc(/C=C/c2ccccc2)nc1C#N | -0.214
Cn1cc(Br)c(C(=O)NC2C3CC4CC(C3)CC2C4)n1 (stereo not drawn) | -0.0702
Cc1ccc([N+](=O)[O-])cc1-c1ccc2cccc(C)c2n1 | 0.0589
COc1cccc(/C=C2\C(=O)N(c3cccc(C)c3)C(=O)c3ccccc32)c1 | -0.152
COC(=O)c1ccccc1NC(=O)c1cc2n(n1)C(C(F)F)CC(C(F)F)N2 (stereo not drawn) | -0.0566
COc1cccc(NC(=O)c2cc(C(=O)Nc3cccc(OC)c3)n(C)n2)c1 | -0.513
CCNc1nc(NOC)nc(OCC#N)n1 | -0.197
CSCCC(NC(=O)c1ccc([N+](=O)[O-])cc1Cl)C(=O)OCC(=O)C12CC3CC(CC(C3)C1)C2 (stereo not drawn) | 0.0401
COc1cc(NC(=O)c2ccco2)c(OC)cc1NC(=O)CSc1nnc(-c2cccs2)n1C | -1.07
CCc1ccc2nc(NC(=O)c3cc(C)on3)sc2c1 | active: 10.1
CCC1CCCCN1C(=O)CN1C(=O)CSC1=O (stereo not drawn) | 0.299
O=C(CSc1nnnn1C1CCCC1)N1CCCc2ccccc21 | -0.581
O=C(Nc1ccc(-c2nnc(-c3ccccc3)o2)cc1)C1CCCO1 (stereo not drawn) | -0.525
c1ccc(OCc2nn3c(-c4ccccn4)nnc3s2)cc1 | 0.373
O=C(Oc1ccc(=O)n(-c2ccccc2)n1)c1ccccc1 | -0.493
COc1cccc(-c2nn(-c3ccccc3)cc2CO)c1 | 0.851

SMILES | z-score
O=C(C1CCN(C2CC(=O)N(c3ccc(F)cc3)C2=O)CC1)N1CCOCC1 (stereo not drawn) | -0.0657
Cc1ccc(OCC(=O)Nc2ccc(-c3nc4ncccc4o3)cc2)c(C)c1 | -0.404
CCC(=O)Nc1ccc2c(c1)nc1n2CCSC1 | 0.0313
COc1ccc(NS(=O)(=O)c2ccc3c(c2)CCC(=O)N3)c(OC)c1 | 0.519
O=C(NCCC1=CCCCC1)C(=O)NCC1OCCCN1S(=O)(=O)c1ccccc1 (stereo not drawn) | 0.0354
COc1ccccc1OCCNc1nc2c(c(=O)n(C)c(=O)n2C)n1C | 1.41
CCCc1c(C)nc2ccccc2c1SCCC#N | -0.202
O=S(=O)(Nc1nc2ccccc2nc1Nc1ccc(N2CCOCC2)cc1)c1cc(Cl)ccc1Cl | -2.42
CCN1CNC(=S)N(c2cc(C)ccc2C)C1 | -0.26
COc1ccc(N(CC(=O)N2c3ccccc3CC2C)S(=O)(=O)c2c(C)nn(C)c2C)cc1 (stereo not drawn) | -0.0129
COCCNC(=O)C(c1ccncc1)N(C(=O)Cn1nnc2ccccc21)c1ccc(OC)cc1 (stereo not drawn) | 1.09
CCOC(=O)Nc1nc(-c2ccccc2)c(C(=O)c2ccc(Cl)cc2)s1 | -0.238
COCCN(CCOC)c1nc(N)c2c(N)nc3c(c2c1C#N)CC(=O)N3Cc1ccc(Cl)cc1 | -0.21
Cn1c(=O)oc2cc(S(=O)(=O)Nc3ccc4c(c3)OCO4)ccc21 | -0.594
CC(C)Cn1c(N)c(C(=O)CSc2ccc3c(c2)OCCO3)c(=O)n(C)c1=O | -0.027
Cc1cc(C)c(S(=O)(=O)c2ccccc2C)c(OCC(C)(C)C)n1 | -0.185
COc1nn(C(C)C(=O)N2N=C(C(F)F)CC2(O)C(F)F)cc1[N+](=O)[O-] (stereo not drawn) | -0.154
COc1ccccc1C1CC(c2ccc(Cl)cc2)Nc2nc(N)nn21 (stereo not drawn) | 0.0485
CCNc1nnc(CSc2nc3ccccc3s2)s1 | 0.134
O=C(/C=C/c1ccccc1)NC1CCSC1=O (stereo not drawn) | 0.793
COc1cccc(NS(=O)(=O)c2cn(C)c(=O)n(C)c2=O)c1 | -0.0462
CC(=O)Nc1cccc(NC(C)=O)n1 | 0.588

SMILES | z-score
Cc1ccc(NS(=O)(=O)c2c(C)[nH]c(=O)[nH]c2=O)cc1C | -0.25
CCN(CC)c1ccc(-n2c(C)c(C(C)=O)c(C(C)=O)c2C)cc1 | -0.203
COc1ccc(NCCC#N)cc1 | 0.269
Cc1cc(C(=O)N(C)CC(=O)Nc2ccccc2C(F)(F)F)c(C)o1 | 0.23
CC(=O)NCCn1c(SCc2ccc(C)cc2C)nc2ccccc2c1=O | 0.0774
CN(CC1CCCO1)S(=O)(=O)c1ccc(C(=O)Nc2nc(-c3ccccn3)cs2)cc1 (stereo not drawn) | -0.115
CCCCNC(=O)CCn1c(=O)c2ccccc2n(CC(=O)Nc2ccccc2OCC)c1=O | 1.06
NC(=O)c1cn(-c2ccccc2)nc1-c1cccnc1 | 0.17
Cc1sc(NC(=O)/C=C/c2ccc3c(c2)OCO3)nc1-c1ccccc1 | -0.36
COc1ccc(C=O)cc1OS(=O)(=O)c1ccc(NC(C)=O)cc1 | -0.159
O=C(Nc1cccc(-c2nc3ncccc3o2)c1)c1sc2cc(Cl)ccc2c1Cl | -0.448
CC[C@H](C)NC(=O)c1ccc(Cn2c(=S)[nH]c3c([nH]c4ccc(OC)cc43)c2=O)cc1 | -0.188
C=CCn1c(C)cc(C(=O)COC(=O)c2ccc3c(c2)NC(=O)CS3)c1C | -0.148
CC(Sc1ccc(Cl)cc1)C(=O)Nc1ccc2c(c1)OCO2 (stereo not drawn) | -0.274
COc1ccc(S(=O)(=O)Nc2nc3ccccc3s2)cc1 | 0.179
COC(=O)c1ccc(N2CCN(C)CC2)c(NC(=O)COc2ccc(OC)cc2)c1 | -0.956
Cc1ccc(S(=O)(=O)N(CC(=O)N/N=C/c2ccco2)c2cc(Cl)cc(Cl)c2)cc1 | 0.0879
CCN(CC)c1ccc(N2C(=O)/C(=C/c3cccnc3)SC2=S)cc1 | -0.107
N#C/C(=C\c1ccc(-c2cccc(C(F)(F)F)c2)o1)C(=O)Nn1cnnc1 | -0.113
O=C(CCN1C(=O)C2CC=C(Cl)CC2C1=O)NCc1ccco1 (stereo not drawn) | -0.187
OCCNc1nc(-c2ccccc2)c2ccccc2n1 | -0.0741
CC(C)c1nc(Cl)c(C#N)c2c1CSC(C)(C)C2 | -0.331

SMILES | z-score
COc1cccc(NC(=O)CN2CCC(C)CC2)c1 | 0.0168
O=S(Cc1ccc(Br)cc1)Cc1nnc(SCc2c(Cl)cccc2Cl)n1-c1ccccc1 (stereo not drawn) | 0.0461
O=C(c1ccc(CS(=O)(=O)c2ccc(Br)cc2)o1)N1CCCC1 | -0.0644
COc1cccc(NS(=O)(=O)c2ccc3[nH]cc(C(=O)NCCN4CCOCC4)c(=O)c3c2)c1 | -0.117
CC(=O)CCS(=O)(=O)c1ccc(NC(C)=O)cc1 | -0.167
COCCCNC(=S)N1CCN(C(=O)C(=O)Nc2ccc(C(=O)OC)cc2)CC1 | -0.209
COc1ccccc1C(=O)N1CCCN(C(=O)c2ccccc2OC)CC1 | 0.134
CCCNC(=O)c1ccc(C2SCC(=O)N2Cc2ccccc2)cc1 (stereo not drawn) | -0.173
C=CCSc1nc(C)cc(/C=C\c2ccccc2)c1C#N | 0.00317
CCC1(C)Cc2c(sc3c2c(=O)n(-c2ccccc2)c(=O)n3C)CO1 (stereo not drawn) | -0.673
C/C(O)=C/c1nc2ccccc2[nH]c1=O | -0.0224
COc1ccccc1C(=O)N/C(=C\c1ccc2c(c1)OCO2)C(=O)NCCc1nc2ccccc2[nH]1 | -1.09
Cc1ccc(-c2nc3ccc(C(=O)O)cc3nc2-c2ccc(C)cc2)cc1 | -0.396
CSc1ccc(Cl)c(C(=O)OCC(=O)N2CCOCC2)c1 | -0.0774
CCSc1nc2ccccc2n1CCOc1ccccc1 | -0.603
Cc1ccc(-c2nnc(SCC(=O)Nc3cccc(C(=O)N4CCOCC4)c3)n2C)cc1 | 1.94
CC1(C)Cc2c(sc3c2c2ncnn2c2nnc(SCC(=O)NCc4ccco4)n32)CO1 | -0.227
C/C(N)=C(/C#N)C(=O)CSc1nc2ccccc2c(=O)n1-c1ccc(C)c(Cl)c1 | -0.275
O=[N+]([O-])c1ccccc1S(=O)(=O)Oc1ccc(C(=S)N2CCOCC2)cc1 | -0.236
CCOC(=O)c1csc(NC(=O)C2CCCCC2)n1 | -0.156
CC(C)(C)SCCNS(=O)(=O)c1ccc2ccccc2c1 | -1.1
CC(=O)c1cc(-c2ccccc2)n(CC(=O)Nc2cccc(C)c2)c1C | -0.0856

SMILES | z-score
CCOC(=O)N1CCN(C(=O)CCN2C(=O)COc3ccc(C)cc32)CC1 | 1.43
COc1ccc(-c2nc3cnccn3c2Nc2ccc(C)cc2)cc1 | -0.524
COc1cc(CNC(C)(C)CO)ccc1OCC(=O)Nc1ccc(Br)cc1 | -0.16
COc1cc(/C=N/n2c(C)nnc2C)cc(OC)c1OC | 0.377
CCC(SC1=N/C(=C/c2ccccc2OC)C(=O)N1c1ccccc1)C(=O)Nc1cc(C)on1 (stereo not drawn) | 0.258
Cc1cccc(N2CCN(CC(=O)Nc3ccccc3[N+](=O)[O-])CC2)c1C | -0.117
CC(C)OC(=O)C1C2C=CC3(CN(CC4CCCO4)C(=O)C13)O2 (stereo not drawn) | -0.25
O=C(NCCN1C(=O)S/C(=C\c2ccccc2F)C1=O)C1CCCN1C(=O)c1cccs1 (stereo not drawn) | -0.396
CCc1ccc(-n2c(O)cnc2Nc2nc(C)cc(C)n2)cc1 | -0.174
CCc1nc2ccccc2c(C(=O)OCCN2C(=O)c3ccccc3C2=O)c1C | -0.709
CC(C)COP(=O)(c1ccc(N(C)C)cc1)C(Nc1ccccc1)c1cccnc1 (stereo not drawn) | 1.07
O=C(OCc1c(Cl)cccc1Cl)c1cccnc1Cl | -0.167
Cc1ccc(-c2nnc(NCc3nc4ccccc4[nH]3)c3ccccc23)cc1S(=O)(=O)N(C)C | -0.904
Cc1ccccc1NC(=O)c1sc2nc[nH]c(=O)c2c1C | -0.123
COc1ccc(-c2nc(C)c(C(C)=O)n2O)cc1 | 0.00611
CC(C)C(C)(C#N)NC(=O)CSc1nnc(C(F)(F)F)n1C (stereo not drawn) | 0.164
FC(F)(F)COc1nc(N2CCOCC2)nc(N(c2ccccc2)c2ccccc2)n1 | -0.75
O=C(NCCC1=CCCCC1)c1ccc(Cl)c(S(=O)(=O)N2CCOCC2)c1 | 0.645
CCNC(=O)OCCC12CC3CC(CC(C3)C1)C2 | -0.876
CC(NC(=O)c1ccccc1)C(c1cccs1)N1CCOCC1 (stereo not drawn) | 1.04
